# In the supplement of paper PMC3334620:
# Whole data set: some 33,000 sequences, median “E-score (-0.5 to 0.5)” near -0.012, cut for the highest 2% near 0.27. Some of the results follow.
# Biological target: T1, Vhr1 (UniProt P40522)
# T1 sequence: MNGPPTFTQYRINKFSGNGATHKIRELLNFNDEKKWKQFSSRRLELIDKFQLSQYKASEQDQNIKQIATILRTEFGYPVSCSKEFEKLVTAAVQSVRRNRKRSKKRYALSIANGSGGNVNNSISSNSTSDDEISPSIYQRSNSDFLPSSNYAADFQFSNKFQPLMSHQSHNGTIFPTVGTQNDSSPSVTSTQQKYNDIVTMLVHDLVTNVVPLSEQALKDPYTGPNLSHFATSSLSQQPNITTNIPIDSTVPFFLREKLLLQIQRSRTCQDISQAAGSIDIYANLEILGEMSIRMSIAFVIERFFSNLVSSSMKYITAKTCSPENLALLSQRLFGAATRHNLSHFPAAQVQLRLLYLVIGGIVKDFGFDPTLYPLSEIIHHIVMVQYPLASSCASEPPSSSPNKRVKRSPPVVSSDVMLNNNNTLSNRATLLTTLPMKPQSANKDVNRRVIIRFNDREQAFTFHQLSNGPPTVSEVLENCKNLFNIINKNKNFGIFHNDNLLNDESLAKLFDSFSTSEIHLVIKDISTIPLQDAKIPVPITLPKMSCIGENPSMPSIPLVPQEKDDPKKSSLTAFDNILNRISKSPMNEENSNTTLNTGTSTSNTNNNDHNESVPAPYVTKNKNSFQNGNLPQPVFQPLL
# Test: PBM E-score (8-mer binding enrichment) (E-score (-0.5 to 0.5)); higher = stronger / more preferred TF binding; most listed sequences are background and not binding sites
# Conditions: protein concentration: 200 nM; construct: GST-full length
# In short: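 Bound GST-tagged yeast transcription factors, applied at about 100-200 nM to double-stranded universal all-10-mer Agilent arrays, were detected with fluorescent anti-GST. Scans were normalised with masliner. A modified Wilcoxon-Mann-Whitney statistic, the E-score, was assigned to each ungapped eight-base word pooled with its reverse complement by the Universal PBM Analysis Suite.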
row,Sequence,PBM E-score
1,CCTTGTCG,-0.233
2,ATCTCATG,0.189
3,AATGGAAC,-0.0778
4,AAGAATAG,-0.0631
5,ACCAGAGC,0.0446
6,AACTCAAG,0.0211
7,AGTTGGTA,0.162
8,ACTTGGCG,0.0405
9,GCGACCCC,0.0605
10,CGAAAGCG,-0.0395
11,AAAATTGA,-0.239
12,AGTTTGCC,0.0585
13,CCCTACCA,0.0219
14,TGGTCTAA,-0.0689
15,CTACTGTA,0.197
16,GACAGGCC,0.0361
17,GCGGCAGA,-0.152
18,CGAAAGGC,-0.0848
19,GATTGTGA,0.144
20,GACAGCTC,-0.0639
21,GTTGAGCA,-0.112
22,GAAAGGAC,-0.0738
23,CGAAGCGC,-0.142
24,TACTCTCA,-0.0517
25,CCGAGCCC,-0.0889

row,Sequence,PBM E-score
1,CGCCGGTC,-0.0526
2,ATAGTTAA,-0.0692
3,CCTGAGAG,-0.105
4,AAGCCACC,-0.106
5,ACCCGTTC,0.0111
6,AATTGGCT,-0.0912
7,CGTTTAAC,-0.12
8,ACTAAACT,-0.0854
9,CGAGCTAG,-0.0521
10,ATGACAAA,0.00026
11,ATCTAACC,-0.175
12,AGAGGACA,-0.188
13,CGAAGGCG,0.0904
14,GTGTCATA,0.127
15,ATCGCGAC,0.241
16,AGTTCGCA,-0.182
17,AACCGCAT,0.0684
18,CCCAACGG,0.134
19,CAGTTTGA,0.00908
20,GCCGCTCC,-0.145
21,ACACCTGT,0.131
22,CGCTGCAA,-0.0576
23,AAGGCGCT,-0.0758
24,GTCACAAA,-0.0213
25,AATTCTCT,-0.285

row,Sequence,PBM E-score
1,CCCCGGAG,0.146
2,GTCTGCCA,-0.00754
3,ACGAAACA,0.0611
4,ACTGGCCA,0.14
5,GTCTCCGA,0.106
6,AAATTAAA,-0.206
7,AATCTGCC,-0.00178
8,GCATCAGA,0.141
9,GTACCCTA,0.0707
10,AACGTCTT,-0.249
11,CGCTGACG,-0.182
12,TATGTGCA,-0.0485
13,TATAAACA,0.0487
14,AGCTACCG,-0.0562
15,AGTGTACG,0.163
16,ATCCAATA,0.135
17,TAAGCGGA,-0.18
18,CGTTAGCC,-0.08
19,CAGAACTA,-0.026
20,CCCAACCC,0.118
21,ACGCCACT,0.0441
22,GATAATTA,-0.00953
23,CACTGACG,-0.0183
24,CGCTCAAA,-0.099
25,CCGTTCTC,-0.181

row,Sequence,PBM E-score
1,AAATAGGA,-0.048
2,AGAGGGTA,-0.0289
3,AACTGCTG,-0.0272
4,CGCAGCCG,0.0461
5,TAACGGCA,0.0468
6,AACCTGCG,0.0224
7,ACTCTTAA,-0.233
8,ACTCATGC,0.322
9,ACACTCAC,0.281
10,CCGAGTCG,0.336
11,AAGTGGTG,0.0502
12,CGCTTTCC,-0.0564
13,CAGCCAAA,0.0934
14,AGACGCAC,-0.0191
15,CCTCGCCA,-0.0907
16,GGCGGCTA,0.0425
17,AGATCCTA,-0.074
18,ACCCACGC,0.235
19,CACCTTGA,-0.0769
20,TTCGAGAA,-0.0407
21,CCACGTGG,-0.129
22,AACACGGG,0.216
23,GGGTCATA,0.186
24,ACAAATCC,0.128
25,CCGTAAGC,-0.149

row,Sequence,PBM E-score
1,GTGGTCGA,-0.168
2,ATAGACTA,0.187
3,CCCACTAC,0.171
4,CATCTACA,0.173
5,AAGCAAGT,-0.0526
6,ATCCAAGC,0.0358
7,GACTGGCC,0.0317
8,CCACGTGC,0.0534
9,GCATCAAA,0.0425
10,AAGACTAC,0.122
11,CTTTAGTC,-0.049
12,ATGCCGCG,0.0183
13,GAGGTAGA,-0.00762
14,CGAATGCC,-0.0201
15,CCTCATCG,0.0284
16,ATCGAGGG,-0.0103
17,ACTACTGG,0.0711
18,CTGTCAGC,-0.0512
19,CGCAACCC,0.0271
20,CTAGACTA,-0.0704
21,CTTAAACA,0.077
22,CTAGGGGC,-0.146
23,GCCAGTAC,0.082
24,GACTGGAC,-0.016
25,CGTTTAGC,-0.145

row,Sequence,PBM E-score
1,AAATTGAG,-0.109
2,ATTAGCGG,-0.292
3,CATAAACA,-0.0683
4,ACAGGTCT,-0.158
5,GTGGAAAC,-0.105
6,GAGTACAC,0.185
7,CTAGGTTA,0.0188
8,AATGCACA,0.0865
9,AGCTAATA,0.0454
10,CATCGGAA,0.104
11,AACCCTTG,-0.102
12,ATCAGGCG,0.127
13,ATAACCGC,0.139
14,GCGGCTCC,-0.197
15,AGCACCCG,0.00487
16,CCGTGGCA,-0.102
17,CGCTTAGC,-0.122
18,ACGAATAT,0.0505
19,GACAGCGA,-0.0983
20,GGATCACC,-0.0237
21,CTTAATTC,-0.255
22,GGTTATTA,0.00306
23,ATCACCCA,0.223
24,GTACGACA,0.0506
25,GGAATCCC,0.034

row,Sequence,PBM E-score
1,ACCTATTG,-0.187
2,CAACGTGC,0.0282
3,ATATAGCG,-0.0993
4,CTCCGTCC,-0.258
5,AGCACCAT,-0.106
6,AGCTCTAT,-0.212
7,AGGTAAAC,-0.06
8,CGTGCAAG,-0.0988
9,GAATCCAC,0.106
10,CATATCCG,0.175
11,ATGACCAC,0.176
12,GATTCAAC,0.202
13,GTGCGGAA,0.0128
14,GGACCATA,-0.0391
15,AATTCCGC,-0.176
16,AAAAGCAT,-0.124
17,ACGCATTC,0.0234
18,CACAGATA,-0.0619
19,AGGGACAC,0.16
20,GGGGCTTA,-0.382
21,CAGTCTGC,-0.0217
22,AAACACCG,0.0312
